The other results are listed elsewhere or left out.
Each sequence was assayed on PfAP2-HC AP2 domain (GST-tagged) (assay: gcPBM binding intensity (ln(normalized median fluorescence intensity)); higher = stronger DNA binding).
Summary of the method: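 Alexa488 anti-GST antibody, scanned at 488 nm, detected GST-tagged P. falciparum DNA-binding domains that had been expressed in E. coli and incubated for 1 h on an Agilent 4 × 180k array. The array carried primer-extended double-stranded 36-bp intergenic genomic probes and negative controls. Binding intensity is the highest Masliner-normalised natural-log median intensity across replicate spots of either orientation of each probe.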

Row | Sequence | gcPBM binding intensity (ln)
1 | TTTTTAATTAACTTTGTAAACTTATATATATATATA [TGCATGCA_negctrl_site311] | 9.6
2 | AAGGAATATTAAGTGGGTACTAAAAAAAAATTAATT [XGTACX_site331] | 9.57
3 | TTAAAGCACCCATGCACACACACAAGGGAAAAGAAA [CACACA_site4289] | 10.9
4 | GAAGTAGATGGAAAAGTGCACTGTAATGGTTATATT | 9.76
5 | TGTATATAGAAACATACACACATATTAATTTTACAT [CACACA_site3126] | 9.86
6 | TTTTTTATTAAAAGCGAAAAAAATGAAAACTTTTTT [GTGCAC_negctrl_site605] | 9.22
7 | TATATATATATATATATATATATTAATATATATTAC [XGTACX_negctrl_site103] | 9.62
8 | AAATTAATAAATATTTTTATAAATTATAATATTAAT [GTGCAC_negctrl_site533] | 9.19
9 | TATATATATATATAATGTACGAATAGAAAAAAAAAA [XGTACX_site7231] | 9.73
10 | CAAAATTTATATAATAGTACACATGATCTTTTTTCT [XGTACX_site8956] | 9.55
11 | GATACAAAATGGGGAACACACACATATATATATATA [CACACA_site9278] | 10.8
12 | AAAAGTGTATGTAGGTGTACTTTTTATTTCTTCTTT [XGTACX_site8819] | 9.76
13 | TAAAGGCAAACAAACACACACACATATATACCTATA [CACACA_site7078] | 10.6
14 | ATAACAAAATAAAACACACACACAAATGTACCTATA [CACACA_site7190] | 10.8
15 | TATTTATAAATATAAACACACAACATTATATGCATA [CACACA_site5748] | 9.75
16 | TACATATTTGTATATGCACACATAAATTTTTCCATT [CACACA_site9148] | 9.82
17 | AAATATTTATACCACACACACATACCTCTATTTGTA [CACACA_site6957] | 10.7
18 | AATGGATTAGCTAGCACACACAAAAAAAAAAAAAAA [CACACA_site3031] | 9.69
19 | TTTTTTTTTTTTTAATGTACCCATGGGCACATAGGT [XGTACX_site486] | 9.26
20 | TAAATATAGGGTAATAGTACATAATTATATTCTTTT [XGTACX_site3883] | 9.64
21 | TATATTTATATATTAGTGCACTTTTTGTTAATTTTT | 9.78
22 | ACAGTATAAAAATAAGCACACACACTAATATATATT [CACACA_site8212] | 10.7

Row | Sequence | gcPBM binding intensity (ln)
23 | TAAAATATATTTTTCTGTACACAAAAATATATTAAA [XGTACX_site2813] | 9.31
24 | TATATATTAATATATGCATGTTAATATATTATGAAA [TGCATGCA_site61] | 9.53
25 | TAAGTTTGTGCAAGTGGTACATATATATAAATTTAT [XGTACX_site5944] | 9.64
26 | TGATTATAGACACGCGCACACACAACAAAAAAAAAA [CACACA_site9179] | 10.1
27 | TTTACATAAACTGGTAGTACATAATATGGCTTAAAA [XGTACX_site5002] | 9.51
28 | TTAGCAACTATTACTACACACATTTGTATTTAATTT [CACACA_site4961] | 9.91
29 | TAATAATAATTAAAATGAGATAAATAAATATATATA [TGCATGCA_negctrl_site322] | 9.44
30 | TCTTTATATCATCTTTCTAAATATATATATATATAA [CACACA_negctrl_site77] | 9.57
31 | TTATATATTTATAAATGTACGTATAAGAATTTAATT [XGTACX_site8541] | 9.37
32 | CTATTAATGTACTCTACACACATATAAGAGGACATT [CACACA_site471] | 9.61
33 | AATGTAAAACGAAATGCACACTATGGAAAATATAAA [CACACA_site4559] | 10.1
34 | AAAAATAAAAATGAGTGTACTTTAAGCCCTACACTT [XGTACX_site828] | 9.59
35 | TATAATATTATAGTTTGTACGAAAATAATATATTTA [XGTACX_site8673] | 9.31
36 | TTTTACTATGATATTTATATATCTATATATGTATAT [XGTACX_negctrl_site499] | 9.74
37 | AACCAAAATTTTTGTCGTACAAAAGAGCAAATGTAG [XGTACX_site6472] | 9.72
38 | GAATTATATACTTATTGTACAAAAAAAAAAAAAAAA [XGTACX_site3193] | 9.14
39 | TATTCCCCCCAACACACACACACACCGACATACCAC [CACACA_site8723] | 11.5
40 | ATAAACATGTATATATTAAAAAAAAAAAAAAAAAAT [CACACA_negctrl_site92] | 9.68
41 | TTATTTATATATTGCCCACACACATGTGATTATTTA [CACACA_site1715] | 10.4
42 | AATATTTTTTGTTTTACACACATATATAAATATATA [CACACA_site3602] | 9.79
43 | TATAATATATATGTATGTACGTATGTATGATTTTGT [XGTACX_site1164] | 9.7
44 | AAGAAAAATTCTTCACGTACAAATAATTATATATAT [XGTACX_site7217] | 9.53

Row | Sequence | gcPBM binding intensity (ln)
45 | GCAAGGTCCACACTGGTGCATTAAAAATAAAATATA [GTGCAC_site9956] | 9.3
46 | TTTTTTAAATATATATGTACATATATCTATATATAT [XGTACX_site3461] | 9.98
47 | TTTATAATTTATAGGCGGACAGGAAAATTTTATAAA [XGTACX_site6955] | 9.21
48 | AAATTACAAATAAAATGTACTCATGTTTTTATTATA [XGTACX_site7223] | 9.48
49 | TTTTTAATTTTTTTCACACATATATAAATACAAATA [CACACA_site5530] | 9.48
50 | TGAACAGGTCATAATTTACACACTATATATTTTATT [CACACA_site8123] | 10
51 | TACAGGAATATTTTTACACACTAAAAGTTATAAACT [CACACA_site6876] | 9.64
52 | TTTTTCTTTTTTTGTTGTACATTTTGTAATATTTAC [XGTACX_site4102] | 9.78
53 | TTTCTTATATTATATAAATATATAGATGTTAATGGT [CACACA_negctrl_site706] | 9.5
54 | AATATAATATAATGCACACATAAAAAAAAAAAAAAA [CACACA_site304] | 9.67
55 | TATTACAAAAATGTGTTATTATATAAACGTATAGAG [XGTACX_negctrl_site529] | 9.71
56 | ATTTTTTTTTTTTTTTTTAATTTATGTTGTTATTTT [CACACA_negctrl_site944] | 9.76
57 | GTAAAATAAATAATATAAATAAAATGAAATGAAACA [TGCATGCA_negctrl_site519] | 9.89
58 | AAGTTTAAAGGAATTACACAAACAAGCAAATATATA [CACACA_negctrl_site857] | 9.74
59 | ATTATATAATAATAAAGTACTAATATTTTTAAAAGA [XGTACX_site235] | 9.53
60 | TAATATATTAAAAGAAGTACATTTCTGATTTAATAG [XGTACX_site6403] | 9.45
61 | ATATATATATATATAGTGCAAATAAAAAATAGACAA [GTGCAC_site9796] | 9.92
62 | GAACCGTTTTTATGTAGTACATATGTATATATATAT [XGTACX_site1577] | 9.89
63 | TTAATATTAAAATATAAACACACAAAATTCAATTAT [CACACA_site9262] | 9.72
64 | AGTAAATATATTATATGTACGTATCATAAAATATAT [XGTACX_site1567] | 9.61
65 | TATTTGTATATTCATTCCTGTATTCCCTTTTTTGTA [CACACA_negctrl_site1236] | 9.8
66 | ATATATATATATGTATGTACATAATATTTTTTTTAT [XGTACX_site5551] | 9.97

Row | Sequence | gcPBM binding intensity (ln)
67 | TGTACGTTTTTTAACACACACACAAAAAAAAAAAAA [CACACA_site6006] | 9.84
68 | ATACCATATAATTATGTGAGAAAATATAATATTCAT [CACACA_negctrl_site310] | 9.67
69 | ATTTTCTTAAATAAATGTACATGGCATTAAAAGTAA [XGTACX_site5119] | 9.59
70 | AAATAAAATCATGAATGTACACAAAAATTATTGCAA [XGTACX_site5691] | 9.67
71 | TTTGAAGGAAGGGGGGGAGGGGCCATAACAAAGGAA [GTGCAC_negctrl_site408] | 9.62
72 | TTAAATATCCATATTTCACACATTTCGATATATATA [CACACA_site4208] | 9.6
73 | ACTGTACTATAAAATACACACATATAAATATAAATA [CACACA_site3009] | 9.99
74 | TATTTTAGAGAAAAAAATAAATTACAAAATGTTAGG [CACACA_negctrl_site1645] | 9.41
75 | ATAATGTCATAATTATATCCTTTGGCATAAAATAAA [XGTACX_negctrl_site574] | 9.49
76 | CCTAAATAAATGGACACACACATATTTATATTTATA [CACACA_site6789] | 10.4
77 | GAATGTAAATATTAAAGTACACAGAATATATCTTCA [XGTACX_site8149] | 9.64
78 | TATAATATTATATAATGTACGCATTTATTATTTAAA [XGTACX_site8326] | 9.48
79 | TGAACCCACAAATCACGTACATATATATACACGTGT [XGTACX_site7739] | 9.74
80 | TTTAACAACTATTTCTGTACACATTTTTATATAATT [XGTACX_site4917] | 9.88
81 | ATATACATTTTAAATTTTAATGTAACCCATGGGAGA [CACACA_negctrl_site588] | 9.58
82 | ATTTATATTATGAGGAGTACAATACTTATAGATGTA [XGTACX_site7510] | 9.59
83 | ATAAATAACTTTTAAATACACACGTAAAATATATTG [CACACA_site3302] | 9.67
84 | AAAAAAGATATATAAACACACATATTTATATACACA [CACACA_site6866] | 10.1
85 | GATAGACACGTGCACACATGCAATACTTTATTCAGT [TGCATGCA_site778] | 10.3
86 | TATATACGTAATAGTAGTACTTTAAAATGCGGAAAT [XGTACX_site4597] | 9.92
87 | TGTACGAGTCGTAGAGTGCAGTCTGGAGAAACGTAC [GTGCAC_site9682] | 9.76
88 | AAAGAAAATTAAAAAGAACACACAAATATATATATA [CACACA_site9196] | 9.9

From the supplement of paper PMC11417369
